According to PubChem BioAssay AID624417 (National Center for Advancing Translational Sciences (NCATS), 2012):
About 6,400 (1.6%) of roughly 410,000 compounds were called active. Inconclusive means that the source gave no clear call. Such entries were picked first, then a sample of the others. The call rests on the fitted dose curve; in most records, active means well fitted inhibition curve with a large enough effect; inconclusive means small, poorly fitted or top-dose-only effect; inactive means no such curve, though single readings can be large or run the other way. Potencies of inconclusive entries are left out as doubtful fits.

These compounds were tested against Glucagon-like peptide 1 receptor (Homo sapiens) (UniProt P43220) (assay: qHTS of GLP-1 Receptor Inverse Agonists (Inhibition Mode)). Conditions: HEK293 GLP-1R CRE-luciferase, luminescence, 24 h, GLP-1R form is constitutively active; activity change, negative = inhibition: at 38.3 µM (top of the series) unless noted.
Chain of UniProt P43220 (P43220 whole entry, looked up): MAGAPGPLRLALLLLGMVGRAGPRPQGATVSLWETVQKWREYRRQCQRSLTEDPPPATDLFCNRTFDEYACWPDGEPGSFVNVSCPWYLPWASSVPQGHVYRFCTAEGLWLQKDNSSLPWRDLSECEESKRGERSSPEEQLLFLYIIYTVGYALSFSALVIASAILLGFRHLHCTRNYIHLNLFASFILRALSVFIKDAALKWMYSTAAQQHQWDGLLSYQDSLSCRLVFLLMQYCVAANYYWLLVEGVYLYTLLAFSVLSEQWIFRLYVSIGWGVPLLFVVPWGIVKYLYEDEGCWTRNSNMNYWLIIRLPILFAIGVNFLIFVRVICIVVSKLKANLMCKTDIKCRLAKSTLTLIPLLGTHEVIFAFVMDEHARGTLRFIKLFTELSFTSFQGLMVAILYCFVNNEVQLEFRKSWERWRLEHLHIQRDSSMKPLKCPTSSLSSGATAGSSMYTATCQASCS
In short: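 Inverse agonists were sought by their lowering of basal cAMP reporter luciferase output in HEK293 cells stably carrying constitutively active human GLP-1R, after 24 h compound treatment.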
Further: nearly all actives have a fitted effect of over 55% in size.
On the % scale 0 is the no-effect control and ±100 the full control effect; potency means the concentration at half of the fitted maximal effect; tags describe the fitted curve by direction and shape.

Row | Structure (SMILES) | Potency | activity change, negative = inhibition
1 | CCSC1=NC2(CCCCC2)Nc2sc3c(c21)CCCC3 | inconclusive [inhibitor, single point] | –
2 | CCCCCCC1CC(CC(=O)Nc2ccc([N+](=O)[O-])cc2)C(=O)O1 (stereo not drawn) | inconclusive [inhibitor, partial curve, poor fit] | –
3 | Cc1cc(-c2ccc(C)c(S(=O)(=O)N3CCN(c4ccccn4)CC3)c2)on1 | inconclusive [inhibitor, single point] | –
4 | Cc1ccc2c(NCc3ccco3)nc(NC(C)C)nc2c1 | inconclusive [inhibitor, partial curve, poor fit] | –
5 | N/C(=N/O)c1ccccc1N1CCC(Cc2ccccc2)CC1 | inconclusive [inhibitor, partial curve, poor fit] | –
6 | COc1cc(CNCc2ccccc2)c(Br)cc1OC1CCCC1 | inconclusive [inhibitor, single point] | –
7 | COc1cc(CCCN2C(=S)NC[C@@H]2c2ccccc2)cc(OC)c1OC | – | inactive: 3.14%
8 | COc1ccc(C2C(C(=O)c3ccc(C)o3)=C(O)C(=O)N2Cc2cccnc2)cc1OC (stereo not drawn) | – | inactive: 24.8%
9 | COc1ccc(-c2cn3cc(C)ccc3n2)cc1OC | inconclusive [inhibitor, single point] | –
10 | Oc1ccccc1-c1cc(C(F)(F)F)nc(-c2ccccc2)n1 | inconclusive [inhibitor, single point] | –
11 | CC1CC(C)CN(S(=O)(=O)c2ccc(NN)nc2)C1 (stereo not drawn) | inconclusive [inhibitor, single point] | –
12 | COc1ccc(C=O)cc1COc1ccc(C)cc1[N+](=O)[O-] | inconclusive [inhibitor, single point] | –
13 | CCn1c(C)c(C2N3CC4(C)CN2CC(C)(C3)C4=O)c2ccccc21 (stereo not drawn) | – | inactive: -2.43%
14 | O=C(COC(=O)c1ccccc1O)Nc1cc(S(=O)(=O)N2CCCCCC2)ccc1Cl | inconclusive [inhibitor, full curve, poor fit] | –
15 | O=C(NNc1ccc([N+](=O)[O-])cc1)c1ccccc1F | inconclusive [inhibitor, full curve, poor fit] | –
16 | COc1ccccc1/C=C/c1nc2ccccc2n1C(C)C | inconclusive [inhibitor, single point] | –
17 | Cc1onc(-c2ccccc2Cl)c1C(=O)Nc1cccc2cccnc12 | inconclusive [inhibitor, partial curve, poor fit] | –
18 | COc1ccccc1CN(C)CC(=O)NC(=O)NC1CCCCC1 | active: 4.47 µM | –
19 | Cc1ccc(NCC(=O)N2CCN(S(=O)(=O)c3ccccc3)CC2)cc1F | inconclusive [inhibitor, single point] | –
20 | Cc1ccc(O)c(NC(=S)NC(=O)Cc2ccc(Cl)cc2)c1 | – | inactive: -14.8%
21 | O=C(Nc1cccc(F)c1)c1ccc(Cn2cc([N+](=O)[O-])cn2)o1 | inconclusive [inhibitor, single point] | –
22 | COc1ccc(Cl)cc1NC(=O)Cc1ccc(NC(=O)N2CCCCc3ccccc32)cc1 | inconclusive [inhibitor, partial curve, poor fit] | –
23 | CN1CCC(N(C)C(=O)c2cc(-c3ccc(F)cc3)nc3ccccc23)CC1 | inconclusive [inhibitor, partial curve, poor fit] | –

Row | Structure (SMILES) | Potency | activity change, negative = inhibition
24 | CC(=O)c1ccc(S(=O)(=O)N2CCn3cccc3C2c2ccc(C)cc2)cc1 (stereo not drawn) | – | inactive: 4.06%
25 | CN(c1cccc(NC(=O)c2ccc(N(C)S(=O)(=O)c3ccccc3)cc2)c1)S(C)(=O)=O | inconclusive [inhibitor, single point] | –
26 | C=CCNC(=O)c1c(Br)cnn1-c1ccc(C)cc1 | inconclusive [inhibitor, single point] | –
27 | CCc1c(C(=O)OCc2ccccc2)[nH]c(C)c1C | inconclusive [inhibitor, single point] | –
28 | CC(C)Oc1ccc(CCc2n[nH]c(=S)n2-c2ccccc2)cc1 | inconclusive [inhibitor, partial curve] | –
29 | O=C(Nc1c[nH]c(=O)[nH]c1=O)c1cc([N+](=O)[O-])cc([N+](=O)[O-])c1 | – | inactive: 2.85%
30 | COc1cc(C(=O)Nc2ccc(Nc3ccccc3)cc2)cc(OC)c1OC | inconclusive [inhibitor, single point] | –
31 | Cc1ccccc1NC(=O)c1ccc(CN(c2ccccc2)S(=O)(=O)c2ccccc2)cc1 | inconclusive [inhibitor, single point] | –
32 | O=C(CCl)N1c2ccccc2OCC1c1ccccc1 (stereo not drawn) | – | inactive: -2.84%
33 | Cc1ccccc1N1CCN(C(=O)NCc2cccc(Cl)c2)CC1 | inconclusive [inhibitor, single point] | –
34 | Cc1ccc(S(=O)(=O)N2CCN(C(=O)COC(=O)c3ccccc3Cl)CC2)c(C)c1 | inconclusive [inhibitor, single point] | –
35 | CCN(CC)S(=O)(=O)c1ccc(Oc2ccccc2)c(N)c1 | inconclusive [inhibitor, single point] | –
36 | Cc1ccccc1Nc1c(-c2ccccn2)nc2c(C)cccn12 | inconclusive [inhibitor, partial curve, poor fit] | –
37 | O=Cc1ccc(-c2ccc(Cl)cc2Cl)[nH]1 | inconclusive [inhibitor, partial curve, poor fit] | –
38 | CCOC(=O)N1CCC(N2CCN(S(=O)(=O)CC)CC2)CC1 | – | inactive: -5.16%
39 | O=C1/C(=C/C=C/c2ccco2)SC(=S)N1NS(=O)(=O)c1ccccc1 | inconclusive [inhibitor, single point] | –
40 | Cc1cc(NC(=O)CSc2nccn2-c2cccc(C)c2C)no1 | inconclusive [inhibitor, full curve, poor fit] | –
41 | Cc1nc(-n2nc(C)c(Cc3ccccc3Cl)c2C)sc1C(=O)Nc1ccccc1F | – | inactive: 3.74%
42 | COc1ccc(S(=O)(=O)N2CCN(c3cc(-c4ccccc4)nc4ncnn34)CC2)cc1 | inconclusive [inhibitor, single point] | –
43 | Fc1ccc(N2CCN(C3CCC(c4ccccc4)CC3)CC2)cc1 (stereo not drawn) | – | inactive: -29.9%
44 | Brc1ccc(Nc2nc(-c3cccnc3)cs2)cc1 | inconclusive [inhibitor, single point] | –
45 | COc1ccc(OC)c(CN2CCC(Cc3ccccc3)CC2)c1 | inconclusive [inhibitor, partial curve, poor fit] | –
46 | Cc1ccc(-c2noc(C(C)NS(=O)(=O)c3ccc(C)cc3)n2)cc1 (stereo not drawn) | inconclusive [inhibitor, single point] | –

Row | Structure (SMILES) | Potency | activity change, negative = inhibition
47 | O=C(NCc1ccco1)c1ccc2c(c1)C(=O)c1ccccc1-2 | – | inactive: 0%
48 | Sc1oc(-c2ccccc2)cc1C=Nc1ccccc1 | inconclusive [inhibitor, partial curve, poor fit] | –
49 | CCc1sc(C(=O)Nc2nccs2)cc1C | inconclusive [inhibitor, single point] | –
50 | Cc1ccc(C)c(CN2CCCN(Cc3ccc(F)cc3)S2(=O)=O)c1 | inconclusive [inhibitor, single point] | –
51 | CC(C)(C)OC(=O)NCCCCCc1nnc(SCc2c(F)cccc2Cl)o1 | active: 10 µM | –
52 | CC(C)(C)c1nc2c(C#N)c(-c3ccc(Cl)cc3)ccn2n1 | inconclusive [inhibitor, single point] | –
53 | CCOc1ccc(NC(=O)CCN2CCN(c3ccccc3)CC2)cc1 | – | inactive: -15%
54 | CCC(=O)Nc1ccccc1C(=O)OCC(=O)c1ccccc1 | – | inactive: -2.38%
55 | Cc1ccc(/C=C/c2onc(C)c2S(=O)(=O)N2CCC(C(=O)N3CCC(N(C)C(C)C)CC3)CC2)cc1 | inconclusive [inhibitor, partial curve, poor fit] | –
56 | O=S(=O)(NOCc1ccc(Cl)cc1)c1ccc(Cl)cc1 | inconclusive [inhibitor, single point] | –
57 | Cc1cc(C)nc(N/N=C/c2cc(C)n(CC(F)(F)F)c2C)n1 | inconclusive [inhibitor, single point] | –
58 | COc1ccc(C(=O)NC(=S)Nc2ccc(CN3CCCCC3)cc2)cc1Cl | active: 8.91 µM | –
59 | S=C(NNc1cccc(Cl)c1)NC1CCCCC1 | active: 10 µM | –
60 | Cc1ccc(-n2c(Cc3ccccc3)nnc2SCc2nc(-c3cccs3)no2)cc1 | active: 10 µM | –
61 | COc1cccc(-c2nc(CS(=O)(=O)CC(=O)Nc3ccccc3C)c(C)o2)c1 | inconclusive [inhibitor, partial curve, poor fit] | –
62 | COc1ccccc1Nc1nc(N)nc(CN2CCCCCC2)n1 | – | inactive: 9.6%
63 | Cc1ccc(S(=O)(=O)N(C)CC(=O)Nc2nnc(CC(C)C)s2)cc1 | inconclusive [inhibitor, partial curve, poor fit] | –
64 | O=C1C(=Cc2cccc(Cl)c2)CCc2ccccc21 | inconclusive [inhibitor, single point] | –
65 | COc1ccc(N2CCN(C(=O)COC(=O)[C@@H](NC(=O)OCc3ccccc3)C(C)C)CC2)cc1 | inconclusive [inhibitor, single point] | –
66 | CC(C)c1cc(NCC2CCCO2)n2c(nc3ccccc32)c1C#N (stereo not drawn) | inconclusive [inhibitor, single point] | –
67 | COc1ccc(NC(=O)c2nc3ccccc3s2)cc1 | inconclusive [inhibitor, partial curve, poor fit] | –
68 | Cc1cccc(N2CCN(c3ccc(NC(=O)/C=C(/C(=O)O)c4ccccc4)cc3)CC2)c1 | inconclusive [inhibitor, full curve, poor fit] | –
